Assay results: patent US20160008398A1, “CONSTITUTIVE EXPRESSION OF COSTIMULATORY LIGANDS ON ADOPTIVELY TRANSFERRED T LYMPHOCYTES” (Memorial Sloan-Kettering Cancer Center, published 2016)

Target: 4-1BB (human, UniProt Q07011)
Experiment: cell-based or functional assay

B1: 4-1BBL (ligand)
chain: not shown
NF-kB-luciferase signal in single OKT3-stimulated Jurkat T cells: 3.8 fold | expansion of CMV pp65-specific T cells restimulated with HLA-A*0201^+ pp65-transduced Caco-2 cells: 209 fold | expansion of P28z-transduced T cells stimulated weekly on LNCaP tumor monolayers: 10 fold | expansion of Pz1^+ T cells cocultured weekly with LNCaP tumor monolayers: 1040 fold enrichment | expansion of T cells stimulated weekly with plate-bound OKT3: 237 fold greater proliferation | in vivo expansion of Pz1^+ T cells in PC3-PSMA tumor bearing mice (bioluminescence): 41 fold higher photon count
